Data taken from PubChem BioAssay AID588689 (Southern Research Specialized Biocontainment Screening …, 2011).
Among all 340,000 compounds or so, about 1,000 (0.29%) were called active. The inconclusive results got no clear call from the source; some entries with a clear call stand among them for comparison. Rule as the data show it: inconclusive = inhibition above about 29% without an active follow-up result; inactive = below that.

These compounds were tested against Genome polyprotein (Dengue virus type 2 (strain 16681-PDK53)) (UniProt P29991) (assay: Dengue-2 NS5 methyltransferase inhibitors, primary screen, biochemical, confirmation dose response (AID 588689)). Settings: Dengue-2 NS5 methyltransferase capping enzyme assay, at 25 µM, stronger effect = higher value.
With `O=C(O)CCN1C(=O)C(=C2CCCCCC2)SC1=S` the inhibition was inactive: 10.4%.
`CCO/C(C)=N/n1c2nc3ccccc3nc2c2c(=O)n(Cc3ccccc3Cl)c(C)nc21` was tested, and the inhibition was inconclusive: 34.5%.
In the case of `CCC1=C(CC2NCCc3ccccc32)CC2c3cc(OC)c(OC)cc3CCN2C1` (stereo unspecified), the inhibition is reported as inconclusive: 48.5%.
`O=C(CSc1nc2ncc(Cl)cc2[nH]1)c1c[nH]c2ccccc12` was tested, and the inhibition was inconclusive: 37.1%.
`COC(=O)c1ccc(COc2ccc(/C=C(\C#N)c3nc4ccccc4[nH]3)cc2OC)o1` was tested, and the inhibition was inconclusive: 43.1%.
For `Cc1ccc(N=C2NC(=O)/C(=C\c3ccc(C)s3)S2)cc1`, the inhibition was inconclusive: 35.1%.
For `Cc1cc(C)cc(N=Cc2[nH]c3ccc(Br)c(Cl)c3c2O)c1`, the inhibition was inconclusive: 151%.
In the case of `CCCCCn1c(N)c(-c2nc3ccccc3s2)c2c([N+](=O)[O-])nn(CC)c(=O)c21`, the inhibition is reported as inactive: -4.79%.
For `O=c1n(Cc2ccccc2F)c2ccccc2n1Cc1ccccc1F`, the inhibition was inactive: -3.2%.
For `CCOC(=O)C1=C(O)/C(=C/c2cn(CC(=O)N3CCCC3)c3ccccc23)SC1=Nc1ccccc1`, the inhibition was inconclusive: 48.4%.
In the case of `CCC(C)(C)C1CCc2c(sc(NC(=O)c3ccoc3C)c2C(N)=O)C1` (stereo unspecified), the inhibition is reported as inactive: -3.22%.
In the case of `COC(=O)C(C#N)c1nc2ccccc2nc1N1CCCC1` (stereo unspecified), the inhibition is reported as inconclusive: 31.6%.
With `CCOC(=O)c1c(NCc2ccc3c(c2)OCO3)c2ccccc2[nH]c1=O` the inhibition was inactive: -4.02%.
With `CCOCCCn1c(=N)c(S(=O)(=O)c2ccccc2)cc2c(=O)n3cc(C)ccc3nc21` the inhibition was inconclusive: 59.7%.
`Oc1c(Br)cc(Br)cc1/C=N/n1c(-c2ccccc2)n[nH]c1=S` was tested, and the inhibition was inactive: -12.7%.
With `O=C(NCc1cccc(C(F)(F)F)c1)c1cccc2c1C(=O)c1ccc(N3CCC(Cc4ccccc4)CC3)cc1S2(=O)=O` the inhibition was inconclusive: 92.5%.
With `COc1cc(C=O)ccc1OCCOCCOc1ccc(Cl)cc1Cl` the inhibition was inactive: -6.82%.
With `COc1ccc(/C=C/C(=O)c2cc(Br)ccc2O)cc1OC` the inhibition was inactive: 0.78%.
With `c1ccc(CCn2nnnc2CN2CCCc3ccccc32)cc1` the inhibition was inconclusive: 32.8%.
For `Clc1ccccc1C1=CC(c2ccco2)n2ncnc2N1` (stereo unspecified), the inhibition was inconclusive: 40%.
`NC(=S)n1[nH]c(-c2ccc([N+](=O)[O-])cc2)c(N=Nc2cccc(Cl)c2)c1=O` was tested, and the inhibition was inconclusive: 32.5%.
In the case of `COc1ccc(CCn2c(=N)c(S(=O)(=O)c3ccc(Cl)cc3)cc3c(=O)n4ccccc4nc32)cc1`, the inhibition is reported as inconclusive: 70.6%.
`CC(C)Oc1ccc(C(=O)N/N=C/c2ccc(-c3ccc(S(=O)(=O)Nc4ncccn4)cc3)o2)cc1` was tested, and the inhibition was inconclusive: 53.5%.
In the case of `O=c1c(C(c2ccc(F)cc2)c2c(O)nc3n(c2=O)CCS3)c(O)nc2n1CCS2`, the inhibition is reported as inactive: -0.78%.
With `C=CCN1C(=O)/C(=C2/Sc3ccc(OC)cc3N2C)SC1=Nc1cccc(O)c1` the inhibition was inconclusive: 30.3%.
`O=C(O)C(Cc1ccccc1)N1C(=O)c2cccc3cccc(c23)C1=O` (stereo unspecified) was tested, and the inhibition was inactive: -2.21%.
With `CCCCOc1[nH]c2nc(-c3ccco3)n(Cc3ccco3)c(=N)c2c1C#N` the inhibition was inconclusive: 65.5%.
For `CCC(=O)N1c2ccccc2-c2nnc(SC)nc2OC1c1ccc(N(C)C)cc1` (stereo unspecified), the inhibition was inactive: -7.25%.
In the case of `Cc1cc(C(=O)O)ccc1-c1ccc(/C=C2\SC(=O)N(CC(=O)Nc3ccc4c(c3)OCO4)C2=O)o1`, the inhibition is reported as inconclusive: 60.7%.
`CC(=O)Nc1sc(/C(C#N)=C\c2cccc(Cl)c2)nc1-c1ccc(C)cc1` was tested, and the inhibition was inconclusive: 152%.
In the case of `CCOC(=O)c1cc(-c2ccccc2)sc1NC(=S)Nc1cc(C)ccn1`, the inhibition is reported as inconclusive: 36.7%.
With `CCC/C(C#Cc1ccc(N(C)C)cc1)=C1/c2ccccc2C(=O)N1c1ccccc1` the inhibition was inconclusive: 104%.
With `COc1ccc(NC(=O)/C(C#N)=C\c2ccc(N3CCOCC3)o2)cc1` the inhibition was inconclusive: 153%.
With `Cc1ccc(C)c(OCc2cc(C(=O)NC(C)c3cnn(C)c3)no2)c1` (stereo unspecified) the inhibition was inactive: -5%.
For `COCCCn1c(=NC(=O)c2ccncc2)c(C#N)cc2c(=O)n3cccc(C)c3nc21`, the inhibition was inconclusive: 70.6%.
With `COC(=O)c1cc(N2CCN(C)CC2)nc2ccccc12` the inhibition was inconclusive: 128%.
With `c1ccc(CSc2nnc(-c3ccco3)c(-c3ccco3)n2)cc1` the inhibition was inconclusive: 50.6%.
In the case of `Nc1nc2c(nc(SCc3ccccc3Br)n2[C@@H]2O[C@H](CO)[C@@H](O)[C@H]2O)c(=O)[nH]1`, the inhibition is reported as inactive: -5.87%.
In the case of `COc1cc(C(=O)Nc2scc(-c3ccccc3)c2C(=O)O)cc(OC)c1OC`, the inhibition is reported as inactive: 14.7%.
`C=CCOC(=O)C(=O)/C=C/c1csc2ccccc12` was tested, and the inhibition was inactive: 23.7%.
With `COc1cc(/C=C2/C(=O)NN(c3ccccc3)C2=O)cc(Br)c1O` the inhibition was inactive: -40.3%.
In the case of `O=C1C(Cl)=C(N2CCC(C(=O)O)CC2)C(=O)c2ccccc21`, the inhibition is reported as inconclusive: 82.8%.
With `O/N=C/c1cc(Br)ccc1OCc1ccccc1F` the inhibition was inactive: 8.73%.
For `COc1ccc(O)c(/C=N/c2nc3ccccc3n2C)c1`, the inhibition was inactive: 3.47%.
With `COc1ccc2c(c1)c1nc3ccccc3nc1n2CCCN1C(=O)c2ccccc2C1=O` the inhibition was inconclusive: 41.3%.
`CSc1ccc(/C=c2\s/c(=C\C(=O)C(C)(C)C)n(CC(=O)NCCC3=CCCCC3)c2=O)cc1` was tested, and the inhibition was inconclusive: 57.8%.
`O=C1NC2c3c(I)sc(I)c3C(=O)C2O1` (stereo unspecified) was tested, and the inhibition was inconclusive: 107%.
`COc1ccc(/C=C2/N=C(c3cccs3)OC2=O)cc1OC(C)C` was tested, and the inhibition was inconclusive: 38%.
For `COc1ccccc1N1CCN(C2CC(=O)N(c3ccc(F)cc3)C2=O)CC1` (stereo unspecified), the inhibition was inactive: 10.3%.
`COc1cc2c(cc1OC)C1c3ccc(OC)c(OC)c3OCC1(O)C2` (stereo unspecified) was tested, and the inhibition was inactive: 3.23%.
For `CC1C/C(=C/c2cccn2C)C(=O)/C(=C/c2cccn2C)C1` (stereo unspecified), the inhibition was inconclusive: 167%.
`c1ccc(CN(Cc2ccco2)C(c2ccncc2)c2nnnn2C2CCCC2)cc1` (stereo unspecified) was tested, and the inhibition was inconclusive: 48.8%.
`NC(=O)C1CCN(C(=O)CN(C2CCCCC2)S(=O)(=O)c2ccc(F)cc2)CC1` was tested, and the inhibition was inactive: -9.49%.
With `CC(/C=C1\SC(=S)N(NC(=O)c2cccc(O)c2)C1=O)=C\c1ccccc1` the inhibition was inactive: -2.56%.
With `O=Cc1ccc(Sc2nnc(-c3ccccc3)o2)c([N+](=O)[O-])c1` the inhibition was inconclusive: 36.8%.
`COc1ccc(C(C(=O)NC(C)(C)C)N(C(=O)CNC(=O)c2cccs2)c2cccnc2)cc1OC` (stereo unspecified) was tested, and the inhibition was inactive: 0.81%.
In the case of `C=C(C)C(=O)NNc1ccccc1`, the inhibition is reported as inactive: 0%.
For `O=C(NCc1cccs1)c1nc2c(nnn2Cc2ccc(F)cc2)c(=O)[nH]1`, the inhibition was inactive: -3.42%.
With `CCOC(=O)Cn1c2ccc(OC)cc2c2nc3ccccc3nc21` the inhibition was inconclusive: 172%.
With `Cc1cccc(CCNS(=O)(=O)c2ccc3c(c2)NC(=O)CS3)c1` the inhibition was inactive: -3.63%.
With `O=C1/C(=C/c2ccco2)Oc2c1ccc(O)c2CN1CCCCC1` the inhibition was inconclusive: 47.1%.
With `O=C(/C=C/c1ccccc1)N/C(=C/c1ccccc1)C(=O)Nc1cccc(C(=O)O)c1` the inhibition was inconclusive: 59.8%.
With `Cc1ccc(NC(=S)NCC2CCCO2)cc1` (stereo unspecified) the inhibition was inactive: -18%.
In the case of `O=c1[nH]c(-[n+]2ccccc2)c(/C=N/NC([S-])=Nc2ccccc2)s1`, the inhibition is reported as inconclusive: 97.4%.
In the case of `Nc1nonc1C(=O)NCCN=Cc1cc(Cc2ccccc2)cc(Br)c1O`, the inhibition is reported as inconclusive: 29.1%.
For `CN(C)c1ccc2c(c1)OC(N)=C(C#N)C2c1cccc(F)c1` (stereo unspecified), the inhibition was inconclusive: 36.7%.
For `CC(=O)c1ccc(C(=O)Nc2sc3c(c2C(N)=O)CCN(Cc2ccccc2)C3)cc1`, the inhibition was inconclusive: 39.5%.
`O=C(N/N=C/c1cccc(Cl)c1)C1CCCC1` was tested, and the inhibition was inactive: 0%.
In the case of `Oc1ccc2ccccc2c1/C=N/Nc1nnc(-c2ncc[nH]2)c2ccccc12`, the inhibition is reported as inconclusive: 35.6%.
In the case of `O=c1[nH]c2cc3c(cc2cc1CN(Cc1nnnn1CC1CCCO1)C1CCCC1)OCO3` (stereo unspecified), the inhibition is reported as inconclusive: 34.7%.
`CS(=O)(=O)c1ccc([C@@H](O)[C@@H](CO)NC(=O)C(Cl)Cl)cc1` was tested, and the inhibition was inconclusive: 59.9%.
In the case of `O=C(COC(=O)c1ccc(Br)o1)NC1CCCc2ccccc21` (stereo unspecified), the inhibition is reported as inactive: -3.71%.
With `Cc1cccc(N2C(=O)c3cccc4c(N(C)CCO)ccc(c34)C2=O)c1` the inhibition was inconclusive: 139%.
`CC(C)(C)c1nn(-c2ccccc2)c2[nH]c(=O)c(CNc3ccc4c(c3)OCCO4)cc12` was tested, and the inhibition was inconclusive: 42.1%.
`CC1CCC2(CC1)NC(=O)N(CC(=O)N1CCOCC1)C2=O` (stereo unspecified) was tested, and the inhibition was inconclusive: 60.3%.
In the case of `O=C(O)COc1ccccc1/C=N/NC(=O)c1cc(-c2ccccc2)nc2ccccc12`, the inhibition is reported as inactive: 7.47%.
In the case of `Cc1ccc([C@@H]2C3COCC=C3C(C#N)=C(N)C2(C#N)C#N)o1` (stereo partly specified), the inhibition is reported as inconclusive: 40.1%.
`O=Cc1ccc(-c2cccc(C(=O)O)c2)o1` was tested, and the inhibition was inactive: 0.72%.
`COc1cc(C(=O)O)c2c(c1C)OC(=O)c1c(C)cc(O)c(C=O)c1O2` was tested, and the inhibition was inactive: 0.72%.
`COCCN1C(=O)C(=O)/C(=C(/O)c2ccc3c(c2)OCCO3)C1c1ccc(C(=O)OC)cc1` (stereo unspecified) was tested, and the inhibition was inactive: 0.56%.
In the case of `COc1ccc(NC(=O)Nc2cc(C)cc(C)c2)cn1`, the inhibition is reported as inconclusive: 43.1%.
With `CC(=NNc1nc2ccccc2s1)c1ncccn1` the inhibition was inconclusive: 32%.
For `CC(C)N(C(=O)[C@H]1C[C@H](CC(=O)NCCN2CCOCC2)C(=O)N2CCc3c([nH]c4cc(-c5ccco5)ccc34)[C@]12C)C(C)C`, the inhibition was inactive: -6.51%.
`COc1ccc(N)cc1-n1c(C)ccc1C` was tested, and the inhibition was inconclusive: 43.2%.
With `COc1cc2[nH]c(=S)nc(NCc3ccccn3)c2cc1OC` the inhibition was inconclusive: 108%.
`S=C(Nc1ccc2nc(-c3ccccn3)c(-c3ccccn3)nc2c1)N1CCCCC1` was tested, and the inhibition was inconclusive: 42%.
